Reference: PubChem BioAssay AID485367 (National Center for Advancing Translational Sciences (NCATS), 2010)
The campaign covered roughly 330,000 compounds. About 560 (0.17%) were called active. The inconclusive results got no clear call from the source; some entries with a clear call stand among them for comparison. Calls follow the shape of the dose curve; as a rule, active = well fitted inhibition curve with a large enough effect; inconclusive = small, poorly fitted or top-dose-only effect, or effect the other way; inactive = flat fitted curve, though single readings scatter. Potencies of inconclusive entries are left out as doubtful fits.

Biological target: ATP-dependent 6-phosphofructokinase (Trypanosoma brucei brucei) (UniProt O15648)
Experiment: qHTS Assay to Find Inhibitors of T. brucei phosphofructokinase; also: nearly all actives have a fitted effect of over 60% in size;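 as to activity, negative = inhibition: 0% = uninhibited 1x PFK enzyme wells and -100% = no-enzyme wells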
Conditions: T. brucei PFK, ADP-Glo luminescence; activity, negative = inhibition: at 57.5 µM (top of the series)
Summary of the method: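 1.25 nM PFK with 0.5 mM F6P and 0.1 mM ATP in 0.1 M TEA pH 8.0, 5 mM MgCl2, incubated 45 min at room temperature; ADP measured by ADP-Glo luminescence; compounds titrated up to 57 uM.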
Potency is read from the fitted curve at half-maximal effect; tags tell the direction and shape of the fitted curve.

UniProt O15648, sequence (O15648 whole entry, looked up): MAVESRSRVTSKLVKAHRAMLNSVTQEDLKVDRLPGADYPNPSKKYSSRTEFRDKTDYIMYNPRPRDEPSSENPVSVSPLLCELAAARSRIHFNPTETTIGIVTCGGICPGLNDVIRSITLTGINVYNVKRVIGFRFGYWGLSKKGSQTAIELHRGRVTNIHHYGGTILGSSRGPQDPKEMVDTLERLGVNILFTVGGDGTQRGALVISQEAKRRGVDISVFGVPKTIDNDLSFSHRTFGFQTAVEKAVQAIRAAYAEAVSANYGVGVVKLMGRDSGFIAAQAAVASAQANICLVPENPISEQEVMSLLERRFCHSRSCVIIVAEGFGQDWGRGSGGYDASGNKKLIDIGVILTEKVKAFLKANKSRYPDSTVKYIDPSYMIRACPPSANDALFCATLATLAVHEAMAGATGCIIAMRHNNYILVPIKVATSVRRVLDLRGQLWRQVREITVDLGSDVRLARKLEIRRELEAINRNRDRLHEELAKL

Structure (SMILES)	Potency	activity, negative = inhibition
O=C1/C(=C\c2cccc(O)c2O)SC(=S)N1Cc1ccccc1	inconclusive [falling, single point]	–
C=CCSC1=N/C(=C\c2ccc(C(=O)O)cc2)C(=O)S1	inconclusive [activator, single point]	–
COC(=O)C(C(=O)OC)=C(/C=C/N(C)C)N(C)C	–	inactive: 23%
Nc1ccc(N2CCN(c3cccc(Cl)c3)CC2)cc1	inconclusive [falling, single point]	–
Cc1nnc(SCC2=C(C(=O)O)N3C(=O)C(NC(=O)Cn4nc(C(F)F)c(Cl)c4C)C3SC2)s1 (stereo unspecified)	inconclusive [falling, single point]	–
Cc1ccccc1C(=O)Nc1ccc2c(c1)C(=O)NC2=O	inconclusive [falling, single point]	–
CCOC(=O)c1sc(=N)n(-c2ccc(OC)cc2)c1C	inconclusive [falling, single point]	–
Oc1ccc(/C=N/N=C/c2ccc(O)c(O)c2)cc1O	active: 2.69 µM	–
CC(C)Cn1c(/C=C/c2ccccc2)nc2ccccc21	–	inactive: 7.7%
Cc1ccc(-c2nn(C(C)(C)C)c3ncnc(N)c23)cc1	inconclusive [falling, single point]	–
CC(C)C(=O)c1cc2c(cc1NC(=O)Nc1cccc3ccccc13)OCCO2	–	inactive: 2.86%
CC(C)(C)SCCNC(=O)CSCc1ccc([N+](=O)[O-])cc1	–	inactive: -2.68%
Cc1c(C(=O)N2CCCC2)c(S(=O)(=O)N2CCN(c3ccccc3F)CC2)c(C)n1C	inconclusive [activator, single point]	–
O=C(O)C1CCCCC1C(=O)Nc1cccc(Br)c1 (stereo unspecified)	active: 16.9 µM	–
CC(C)[C@@H](CO)N(C)S(=O)(=O)c1ccccc1Br	–	inactive: 0.0941%
COc1ccc(C2=Nn3c(nnc3-c3ccncc3)SC2)cc1	–	inactive: -6.04%
Cc1ccc(-c2cc(C(=O)Nc3nccs3)c3ccccc3n2)o1	active: 30.1 µM	–
COc1ccc2c(c1)c(=O)cc(C)n2CC(=O)NCc1ccco1	inconclusive [falling, single point]	–
CC(C)OCCOc1ccc2oc(-c3ccco3)cc(=O)c2c1	inconclusive [falling, single point]	–
CCN(C(=O)COC(=O)/C=C/c1ccco1)C1CCCCC1	inconclusive [falling, single point]	–
CCc1c(C)c(C#N)c2[nH]c3ccccc3n2c1=S	inconclusive [falling, single point]	–
COc1cc(C#Cc2c(-c3cncn3C)n(C)c3ccc(Br)cc23)cc(OC)c1	–	inactive: 4.86%
COc1cccc(C(=O)NC2CCCc3ccccc32)c1 (stereo unspecified)	inconclusive [falling, single point]	–
N#Cc1c(NC(=O)c2ccccc2Cl)n(Cc2ccccc2)c2nc3ccccc3nc12	–	inactive: 3.34%
CC/C(=C(\c1ccc(O)cc1)c1ccc(OCCN(C)C)cc1)c1ccccc1	–	inactive: 3.18%
Cc1cc(=O)n2[nH]c(-c3sccc3-n3c(C)ccc3C)cc2n1	inconclusive [activator, partial curve]	–

Structure (SMILES)	Potency	activity, negative = inhibition
O=[N+]([O-])c1ccc(P(=O)(Cc2ccccc2)c2ccccc2O)cc1 (stereo unspecified)	inconclusive [falling, single point]	–
O=C(/C=C/c1ccc(Cl)cc1Cl)Nc1cccc(S(=O)(=O)NC2=NCCC2)c1	–	inactive: 0.332%
Cc1cc(=O)oc2cc(OCC(=O)N3CCOCC3)ccc12	inconclusive [falling, single point]	–
O=C(Nc1nnc(C2COc3ccccc3O2)o1)c1ccc(F)cc1 (stereo unspecified)	inconclusive [falling, single point]	–
O=C1C2C3C=CC(CC3)C2C(=O)N1c1nccs1 (stereo unspecified)	inconclusive [falling, partial curve]	–
O=C(COC(=O)Cn1cnc2ccccc21)Nc1ccc(F)c(F)c1	inconclusive [falling, single point]	–
O=C(Oc1cccc([N+](=O)[O-])c1)c1ccc2c(=O)n3c(nc2c1)CCC3	inconclusive [falling, single point]	–
CC(=O)c1cccc(NC(=O)NNC(=O)c2ccc(Cl)cc2Cl)c1	inconclusive [falling, single point]	–
CN(C(=S)NC(=O)c1ccc(Cl)cc1)C1CCCCC1	inconclusive [falling, partial curve]	–
CC(C)(C)c1cc(Cl)ccc1OCCn1ccnc1	–	inactive: 0%
CCN1CCN(C(=S)c2ccc(O)cc2)CC1	active: 13.5 µM	–
CCC1C/C(=C/c2ccco2)C(=O)/C(=C/c2ccco2)C1 (stereo unspecified)	inconclusive [falling, single point]	–
COc1cccc(Cn2nnc(C(=O)Nc3ccc(C)cc3)c2N)c1	–	inactive: 3.52%
CC(=O)C1=C(c2ccc(Br)cc2)C(=O)c2ccccc2C1=O	–	inactive: 3.55%
Oc1cccc(/C=N/Nc2cc(N3CCOCC3)nc(N3CCOCC3)n2)c1	inconclusive [falling, single point]	–
COc1cc(Cl)c(C)cc1NC(=O)c1cc(S(=O)(=O)N(C)C)ccc1N1CCCC1	inconclusive [activator, single point]	–
CN(C(=O)Nc1ccc(Cl)c(Cl)c1)c1ccccc1C(=O)O	active: 15.1 µM	–
Cc1ccc2c(c1)C(=O)C(=O)N2CC1COc2ccccc2O1 (stereo unspecified)	inconclusive [falling, full curve, poor fit]	–
CCOC(=O)c1sc(NC(=O)CSc2n[nH]c(-c3ccncc3)n2)c(C#N)c1C	–	inactive: 3.61%
Cc1c(C(=O)OCC(=O)NCc2ccco2)cccc1[N+](=O)[O-]	inconclusive [falling, single point]	–
O=C(O)c1ccnc(SCC(=O)c2ccccc2)c1	inconclusive [activator, partial curve]	–
O=C(CN1C(=O)NC2(CCCCC2)C1=O)Nc1ccc(N2CCCCC2)cc1	inconclusive [activator, single point]	–
O=C(N/N=C1/C(=O)c2cccc3cccc1c23)c1ccc(Cl)cc1	inconclusive [falling, partial curve]	–
COC(=O)c1c(C)c2c(C)cc3ccccn3c-2c1C(=O)OC	–	inactive: -2.36%
O=C(O)c1cccc(Cn2c(Cl)c(/C=N/NC(=O)c3cc4ccccc4cc3O)sc2=O)c1	–	inactive: -3.51%
O=C(COc1ccc(S(=O)(=O)N2CCOCC2)cc1)Nc1ccc(Cl)c(C(F)(F)F)c1	inconclusive [falling, partial curve, poor fit]	–

Structure (SMILES)	Potency	activity, negative = inhibition
CCOC(=O)c1cc(-c2ccc(/C=C3/C(=O)N(c4ccc(C(=O)O)cc4)N=C3C)o2)ccc1Cl	inconclusive [falling, single point]	–
CCOC(=O)C1(Cc2ccccc2)CCCN(Cc2cnn(CC)c2)C1 (stereo unspecified)	–	inactive: -6.75%
COc1ccc(N2CCN(Cc3nc(-c4ccccc4)no3)CC2)cc1	active: 23.9 µM	–
CCCOC(=O)c1c(-c2ccc(C)cc2C)csc1NC(=O)C1C2CCC(O2)C1C(=O)O (stereo unspecified)	inconclusive [falling, single point]	–
Cc1cc(NC(=O)c2cc(S(=O)(=O)N3CCCCC3)ccc2C)no1	inconclusive [falling, partial curve]	–
O=C(N/N=C/c1ccc([N+](=O)[O-])o1)c1cc(-c2ccncc2)nc2ccccc12	–	inactive: 3.85%
CCOc1ccccc1NC(=O)Cn1nnc(C(=O)NCc2ccc3c(c2)OCO3)c1N	inconclusive [falling, single point]	–
COc1[nH]c(/N=C/c2ccccc2)c(C#N)c1C#N	–	inactive: -2.07%
Cc1ccc(S(=O)(=O)CCC(=O)OCc2ccc(Cl)c(Cl)c2)cc1	inconclusive [falling, single point]	–
O=C(c1ccccc1)C1C(=O)c2ccccc2C1=O	inconclusive [falling, single point]	–
Nc1ccc(-c2c3ccc(=O)cc-3oc3cc(O)ccc23)cc1C(=O)O	–	inactive: 1.31%
O=C(CCCSc1ccc(Cl)cc1)Nc1ccccc1O	inconclusive [falling, single point]	–
Cc1ccc(/C=C2\C(=O)NC(=O)N2C)o1	inconclusive [falling, single point]	–
C/C(=N\NC(=O)c1cc(O)ccc1O)c1cccc(NC(=O)c2cccc(Cl)c2)c1	–	inactive: -4.66%
Fc1ccc(NCc2cccnc2)cc1F	active: 23.9 µM	–
CCOC(=O)N1CCN(C(=O)COc2cccc3c2CCN(CC)C3=O)CC1	–	inactive: 0.151%
COc1ccc(C)cc1Nc1nc(N)c2cc(OC)c(OC)cc2n1	inconclusive [activator, single point]	–
O=C(Cn1c2ccccc2c2nc3n(c(=O)c21)CCCS3)Nc1ccccc1	–	inactive: -0.233%
O=C(Nc1ccc(C2=NCCN2)cc1)c1ccc(C(=O)Nc2ccc(C3=NCCN3)cc2)c([N+](=O)[O-])c1	inconclusive [activator, single point]	–
Cc1cccc(OCCCC(=O)O)c1	inconclusive [falling, single point]	–
C=CCn1cccc(C(=O)Nc2ccc(SC)cc2)c1=O	–	inactive: 2.19%
Cc1ccc(OCCOc2ccc(Br)cc2)c([N+](=O)[O-])n1	–	inactive: -20.8%
CCOC(=O)N1CCN(c2cc(NCCC(=O)O)c3c4c(onc24)-c2ccccc2C3=O)CC1	–	inactive: -16.7%
NC(=O)c1c(NC(=O)C2CC=CCC2C(=O)O)sc2c1CCCCC2 (stereo unspecified)	inconclusive [falling, single point]	–
